# From the supplement of paper PMC8728848
# Some of the results follow.
# Columns and labels:
# Assay in all cases: glycan array binding signal (z-score within array); higher = stronger binding
# Details in all cases: glycan notation: IUPAC condensed, linker removed
# [1] = biological target: Gal(b1-4)GlcNAc(b1-2)[Gal(b1-4)GlcNAc(b1-4)]Man(a1-3)[Gal(b1-4)GlcNAc(b1-2)Man(a1-6)]Man(b1-4)GlcNAc(b1-4)GlcNAc
# Method in brief: (§1)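 The binding signal is a Z-score computed within each array and averaged over linkers. Arrays of the same protein sequence at different concentrations or buffers were also averaged together. Data originate from 3228 arrays in the Consortium for Functional Glycomics database, kept only where the protein sequence was available.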
# [2] = biological target: Gal(b1-4)GlcNAc(b1-2)[Gal(b1-4)GlcNAc(b1-4)]Man(a1-3)[Gal(b1-4)GlcNAc(b1-2)[Gal(b1-4)GlcNAc(b1-6)]Man(a1-6)]Man(b1-4)GlcNAc(b1-4)GlcNAc
# Method in brief: as §1
# [3] = biological target: Gal(b1-4)GlcNAc(b1-2)[Gal(b1-4)GlcNAc(b1-4)]Man(a1-3)[Gal(b1-4)GlcNAc(b1-2)[Gal(b1-4)GlcNAc(b1-6)]Man(a1-6)][GlcNAc(b1-4)]Man(b1-4)GlcNAc(b1-4)GlcNAc
# Method in brief: as §1
# [4] = biological target: Gal(b1-4)GlcNAc(b1-2)[Gal(b1-4)GlcNAc(b1-4)]Man(a1-3)[GlcNAc(b1-4)][Gal(b1-4)GlcNAc(b1-2)Man(a1-6)]Man(b1-4)GlcNAc(b1-4)GlcNAc
# Method in brief: as §1
# [5] = biological target: Gal(b1-4)GlcNAc(b1-2)[Gal(b1-4)GlcNAc(b1-4)]Man(a1-3)[GlcNAc(b1-4)][Gal(b1-4)GlcNAc(b1-2)[Gal(b1-4)GlcNAc(b1-6)]Man(a1-6)]Man(b1-4)GlcNAc(b1-4)GlcNAc
# Method in brief: as §1
# [6] = biological target: Gal(b1-4)GlcNAc(b1-2)[Gal(b1-4)GlcNAc(b1-6)]Man(a1-6)[Gal(b1-4)GlcNAc(b1-2)Man(a1-3)]Man(b1-4)GlcNAc(b1-4)GlcNAc
# Method in brief: as §1
# [7] = biological target: Gal(b1-4)GlcNAc(b1-2)[Gal(b1-4)GlcNAc(b1-6)]Man(a1-6)[Gal(b1-4)GlcNAc(b1-2)Man(a1-3)]Man(b1-4)GlcNAc(b1-4)[Fuc(a1-6)]GlcNAc
# Method in brief: as §1
# [8] = biological target: Gal(b1-4)GlcNAc(b1-2)[Gal(b1-4)GlcNAc(b1-6)]Man(a1-6)[GlcNAc(b1-4)][Gal(b1-4)GlcNAc(b1-2)Man(a1-3)]Man(b1-4)GlcNAc(b1-4)GlcNAc
# Method in brief: as §1
# [9] = biological target: Gal(b1-4)GlcNAc(b1-2)[Gal(b1-4)GlcNAc(b1-6)]Man(a1-6)[GlcNAc(b1-4)][Gal(b1-4)GlcNAc(b1-2)[Gal(b1-4)GlcNAc(b1-4)]Man(a1-3)]Man(b1-4)GlcNAc(b1-4)[Fuc(a1-6)]GlcNAc
# Method in brief: as §1
# [10] = biological target: Gal(b1-4)GlcNAc(b1-3)Gal(b1-3)GalNAc
# Method in brief: as §1
# [11] = biological target: Gal(b1-4)GlcNAc(b1-3)Gal(b1-3)GlcNAc
# Method in brief: as §1
# [12] = biological target: Gal(b1-4)GlcNAc(b1-3)Gal(b1-4)Glc
# Method in brief: as §1
# [13] = biological target: Gal(b1-4)GlcNAc(b1-3)Gal(b1-4)GlcNAc
# Method in brief: as §1
# [14] = biological target: Gal(b1-4)GlcNAc(b1-3)Gal(b1-4)GlcNAc(b1-2)Man(a1-3)[Gal(b1-4)GlcNAc(b1-3)Gal(b1-4)GlcNAc(b1-2)Man(a1-6)]Man(b1-4)GlcNAc(b1-4)GlcNAc
# Method in brief: as §1
# [15] = biological target: Gal(b1-4)GlcNAc(b1-3)Gal(b1-4)GlcNAc(b1-2)Man(a1-3)[Gal(b1-4)GlcNAc(b1-3)Gal(b1-4)GlcNAc(b1-2)Man(a1-6)]Man(b1-4)GlcNAc(b1-4)[Fuc(a1-6)]GlcNAc
# Method in brief: as §1
# [16] = biological target: Gal(b1-4)GlcNAc(b1-3)Gal(b1-4)GlcNAc(b1-2)[Gal(b1-4)GlcNAc(b1-3)Gal(b1-4)GlcNAc(b1-6)]Man(a1-6)[Gal(b1-4)GlcNAc(b1-3)Gal(b1-4)GlcNAc(b1-2)Man(a1-3)]Man(b1-4)GlcNAc(b1-4)GlcNAc
# Method in brief: as §1
# [17] = biological target: Gal(b1-4)GlcNAc(b1-3)Gal(b1-4)GlcNAc(b1-2)[Gal(b1-4)GlcNAc(b1-3)Gal(b1-4)GlcNAc(b1-6)]Man(a1-6)[Gal(b1-4)GlcNAc(b1-3)Gal(b1-4)GlcNAc(b1-2)Man(a1-3)]Man(b1-4)GlcNAc(b1-4)[Fuc(a1-6)]GlcNAc
# Method in brief: as §1
# [18] = biological target: Gal(b1-4)GlcNAc(b1-3)Gal(b1-4)GlcNAc(b1-3)Gal(b1-4)GlcNAc
# Method in brief: as §1
binder,measurement,setting,value
"LSECtin (Homo sapiens), Q6UXB4 (protein) MDTTRYSKWGGSSEEVPGGPWGRWVHWSRRPLFLALAVLVTTVLWAVILSILLSKASTERAALLDGHDLLRTNASKQTAALGALKEEVGDCHSCCSGTQAQLQTTRAELGEAQAKLMEQESALRELRERVTQGLAEAGRGREDVRTELFRALEAVRLQNNSCEPCPTSWLSFEGSCYFFSVPKTTWAAAQDHCADASAHLVIVGGLDEQGFLTRNTRGRGYWLGLRAVRHLGKVQGYQWVDGVSLSFSHWNQGEPNDAWGRENCVMMLHTGLWNDAPCDSEKDGWICEKRHNC",glycan array binding signal (z-score),[1],-0.157
same,glycan array binding signal (z-score),[2],-0.138
same,glycan array binding signal (z-score),[3],-0.147
same,glycan array binding signal (z-score),[4],-0.119
same,glycan array binding signal (z-score),[5],-0.138
same,glycan array binding signal (z-score),[6],-0.137
same,glycan array binding signal (z-score),[7],-0.116
same,glycan array binding signal (z-score),[8],-0.138
same,glycan array binding signal (z-score),[9],-0.136
same,glycan array binding signal (z-score),[10],-0.141
same,glycan array binding signal (z-score),[11],-0.189
same,glycan array binding signal (z-score),[12],-0.174
same,glycan array binding signal (z-score),[13],-0.154
same,glycan array binding signal (z-score),[14],-0.13
same,glycan array binding signal (z-score),[15],-0.125
same,glycan array binding signal (z-score),[16],-0.139
same,glycan array binding signal (z-score),[17],-0.135
same,glycan array binding signal (z-score),[18],-0.119
